Test results from paper PMC10068449 (Cancer discovery, 2023).

Target: the molecule itself
Assay: native gel or EMSA

Row | Protein | stoichiometry N
1 | Flag-HA tagged wildtype human TPI1 (guide RNA resistant transgene) (enzyme) not shown | 2
2 | Flag-HA tagged human TPI1 S21A (guide RNA resistant transgene) (enzyme) not shown | 2
